Some of the results follow. The main result of the screen is listed elsewhere. These columns were measured beside it and carry no call.

Holding throughout (test): Primary Screen for Target Class Profiling of Small Molecule Inhibitors of Methyltransferases
The target of experiment [1] is Glycine N-methyltransferase (Homo sapiens) (UniProt Q14749). The settings on record: purified enzyme, MTase-Glo SAH luminescence; measured here: GNMT inhibition; at 40 µM; stronger effect = lower value. The method in brief: (§1)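 Each enzyme was reacted with SAM and its substrate, with compounds tested once at 40 uM; SAH formed was read by MTase-Glo luminescence.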
Experiment [2] has as its target Guanidinoacetate N-methyltransferase (Homo sapiens) (UniProt Q14353). The settings on record: purified enzyme, MTase-Glo SAH luminescence; measured here: GAMT inhibition; at 40 µM; stronger effect = lower value. The method in brief:
as §1

Experiment [3] concerns the target Histamine N-methyltransferase (Homo sapiens) (UniProt P50135). The note with it: purified enzyme, MTase-Glo SAH luminescence; measured here: HNMT inhibition; at 40 µM; stronger effect = lower value. The method in brief:
as §1

In experiment [4] the target is Nicotinamide N-methyltransferase (Homo sapiens) (UniProt P40261). The note with it: purified enzyme, MTase-Glo SAH luminescence; measured here: NNMT inhibition; at 40 µM; stronger effect = lower value. The method in brief:
as §1

In experiment [5] the target is Phenylethanolamine N-methyltransferase (Homo sapiens) (UniProt P11086). The note with it: purified enzyme, MTase-Glo SAH luminescence; measured here: PNMT inhibition; at 40 µM; stronger effect = lower value. The method in brief:
as §1
On the % scale 0 is the no-effect control and ±100 the full control effect.

Turning to `C/C(=C/C=C\C=C\Cc1cnco1)[C@@H](O)C(C)(C)C(N)=O`, the activity change, negative = inhibition in experiment [1] is -2.85%; in experiment [2], 2.8%; in experiment [3], -2.38%; in experiment [4] it was -10.5%; in experiment [5], 0.542%.
Take `COc1ccc(-c2nn3c(-c4ccco4)nnc3s2)cc1OC`: the values for the activity change, negative = inhibition in experiment [2], in experiment [4] and in experiment [5] were -7.84%, -23.3% and -2.37%, respectively.
For the compound `CCc1cc(=O)[nH]c(N2CCOCC2)n1`, the activity change, negative = inhibition was -3.25% in experiment [1]; -2.77% in experiment [2]; -0.167% in experiment [3]; -10.2% in experiment [4]; -1.57% in experiment [5].
The corresponding values for `Cc1ccc(Cn2c(=O)c3ccccc3n3c(SCC(=O)Nc4ccc(C)c(C)c4)nnc23)cc1` are 0.991%, 4.96%, 6.07%, -1.14% and 2.26%.
The corresponding values for `CC1CCCC(NC(=O)C2(C)Cn3c(ccc3-c3ccco3)C(=O)N2Cc2ccco2)C1C` (stereo not drawn) are -1.17%, 0%, 0.71%, -8.34% and -1.88%.
The matching figures for `Cc1ccc(Cn2c(=O)c3ccccc3n3c(CCC(=O)Nc4ccc(C)c(C)c4)nnc23)cc1`: 3.72%, 0%, 7.55%, 3.71% and 1.82%.
Take `O=C(O)c1cccnc1C(=O)O`: the activity change, negative = inhibition in experiment [1] was found to be 3.64%; in experiment [2], 16.1%; in experiment [3], 8.68%; in experiment [4] it was 0.512%; in experiment [5], 5.98%.
As to `CC1(C(=O)NC2CCCCCC2)Cn2nc(-c3ccco3)cc2C(=O)N1Cc1ccccc1F` (stereo not drawn), the activity change, negative = inhibition in experiment [1] was -3.62%; in experiment [2], 2.28%; in experiment [3] it was -2.34%; in experiment [4], -4.8%; in experiment [5], -6.23%.
As to `CCc1cccc(NS(=O)(=O)c2cc3c(cc2Cl)n(C)c(=O)n3C)c1`, the activity change, negative = inhibition in experiment [1] is 5.12%; in experiment [2], 0.873%; in experiment [3], -1.95%; in experiment [4] it was 3.06%; in experiment [5], 2.32%.
The corresponding values for `CCOCCCNc1nc2c(S(=O)(=O)c3ccccc3)nnn2c2ccc(Cl)cc12` are -16.6%, 3.58%, -4.68%, -5.57% and -6.62%.
The corresponding values for `Cc1cc2[nH]c(=O)[nH]c2cc1S(=O)(=O)N1CCC(C)CC1` are 9.31%, 4.23%, 8.24%, -4.66% and 2.37%.
The matching figures for `CC1(C(=O)NC2CCCCC2)Cn2nc(-c3ccco3)cc2C(=O)N1c1ccccc1F` (stereo not drawn): -1.07%, 4.65%, 1.75%, 2.38% and -2.56%.
Turning to `CCOC(=O)c1cc2n(n1)CC(C)(C(=O)NCCC(C)C)N(c1ccc3c(c1)OCO3)C2=O` (stereo not drawn), the activity change, negative = inhibition in experiment [1] is -0.517%; in experiment [2], 4.19%; in experiment [3], 1.2%; in experiment [4], 7.77%; in experiment [5], -2.77%.
The matching figures for `C[C@@H]1CC[C@]2(C(=O)O[C@@H]3O[C@H](CO[C@@H]4O[C@H](CO)[C@@H](O)[C@H](O)[C@H]4O)[C@@H](O)[C@H](O)[C@H]3O)CC[C@]3(C)C(=CCC4[C@@]5(C)CC[C@H](O)[C@](C)(C(=O)O)C5CC[C@]43C)[C@@H]2[C@]1(C)O` (stereo partly drawn): 2.05%, -1.85%, 7.19%, -14.9% and -1.16%.
The corresponding values for `CCCn1c(=O)c2ccccc2n2c(SCC(=O)Nc3cc(Cl)ccc3C)nnc12` are -4.88%, 4%, 2.47%, -9.81% and 1.38%.
The corresponding values for `CCCn1c(=O)c2ccc(C(=O)NCC(C)C)cc2n2c(=O)n(C(C)C(=O)c3ccc(C)c(C)c3)nc12` (stereo not drawn) are -0.124%, 0%, 1.33%, -4.03% and 3.36%.
`COc1cccc(CN2C(=O)c3cc(C(C)(C)C)nn3CC2(C)C(=O)NC2CCCCCC2)c1` (stereo not drawn): the activity change, negative = inhibition in experiment [1] was found to be 5.51%; in experiment [2] it was 1.19%; in experiment [3], 7.65%; in experiment [4], 0.497%; in experiment [5], 1.33%.
The matching figures for `Cn1ncc(N2CCC(CNC(=O)c3cccc4ccnn34)C2)cc1=O` (stereo not drawn): -5.92%, -4.83%, -0.181%, -14.7% and 0.718%.
The matching figures for `CCCn1c(=O)c2ccccc2n2c(=O)n(Cc3cc(C)ccc3C)nc12`: 5.08%, 0.055%, 9.09%, -1.02% and 5.26%.
The matching figures for `CCOc1ccc(OCC)c(NS(=O)(=O)c2ccc3[nH]c4c(c3c2)CCCC4)c1`: 4.06%, 4.3%, 2.55%, -1.59% and 0.152%.
Take `O=C(O)C[C@@H]1CCN(S(=O)(=O)c2ccccc2)C[C@@H]1CCN(CCN1CCOCC1)c1ccccc1`: the activity change, negative = inhibition in experiment [1] is -13%; in experiment [2] it was -3.31%; in experiment [3] it was -5.3%; in experiment [4] it was -4.07%; in experiment [5], -0.056%.
The matching figures for `COc1ccc(CNC(=O)c2cc3n(n2)CC(C)(C(=O)NCCC(C)C)N(C)C3=O)cc1` (stereo not drawn): 6.83%, 0%, 8.3%, 9.69% and 6.42%.
The corresponding values for `C=C1C(=O)O[C@H]2/C=C(/C)[C@@H](OC(C)=O)C/C=C(\C)C[C@@H](OC(=O)/C(=C/C)COC(=O)/C(=C/C)CO)[C@@H]12` are 4.03%, 3.82%, 10.3%, -7.4% and 7.19%.
Regarding `CC(C)NC(=O)N1Cc2c(sc3c2CCCC3)-n2cccc2C1c1ccc(Cl)cc1` (stereo not drawn), the activity change, negative = inhibition in experiment [1] was -3.24%; in experiment [2] it was 4.85%; in experiment [3] it was 1%; in experiment [4], -4.16%; in experiment [5], 2.23%.
The corresponding values for `Cc1ccccc1CN1C(=O)c2cc3sccc3n2CC1(C)C(=O)NC1CCCCC1` (stereo not drawn) are -4.56%, 2.71%, -3.21%, 1.82% and -1.18%.
The corresponding values for `CC(C)(C)c1ccc(CNC(=S)NCc2ccc(NS(C)(=O)=O)c(F)c2)cc1` are -15.6%, -24.2%, -8.7%, -42.7% and -17.4%.
For `COC(=O)c1ncn2c1C(=O)N(Cc1ccc(OC(C)C)cc1)C(C)(C(=O)NCc1ccccc1)C2` (stereo not drawn), the activity change, negative = inhibition came to 5.3% in experiment [1]; 0.917% in experiment [2]; 13.4% in experiment [3]; 7.04% in experiment [4]; 9.65% in experiment [5].
The matching figures for `CN(C)c1ccc(CNC(=O)CNC(=O)C2(C)Cn3c(cc4ccccc43)C(=O)N2C)cc1` (stereo not drawn): 0.622%, 0%, 0.354%, -3.9% and 0.554%.
The corresponding values for `CCC(C)NC(=O)c1ccc2c(=O)n(C(C)C)c3nn(CC(=O)N(C)c4ccc(F)cc4)c(=O)n3c2c1` (stereo not drawn) are 1.45%, 4.41%, -3.92%, -5.11% and -0.133%.

The values are drawn from PubChem BioAssay AID1745853 (National Center for Advancing Translational Sciences (NCATS), 2022).
